Reference: paper PMC9418145 (2022)

Columns and labels:
[1] = molecular target: T1, stabilized H176C form of the soluble human LLT1 ectodomain (Gln72-Val191), glycosylated (human, UniProt Q9UHP7 72-191, H176C, GlcNAc2Man5 glycans); assay: MST; A+B<=>AB model
[2] = molecular target: T2, LLT1^SIM, N120R, R153E, K169A secondary interaction mode triple mutant of the soluble LLT1 ectodomain (Homo sapiens, UniProt Q9UHP7 72-191, N120R | R153E | K169A | H176C); assay: MST; A+B<=>AB model
[3] = molecular target: T1, stabilized H176C form of the soluble …; assay: AUC; BAB model, second site (KD2)
[4] = molecular target: T2, LLT1^SIM, N120R, R153E, K169A secondary …; assay: AUC; BAB model, first site (KD1)
[5] = molecular target: T1, stabilized H176C form of the soluble …; assay: AUC; BAB model, first site (KD1)
[6] = molecular target: T2, LLT1^SIM, N120R, R153E, K169A secondary …; assay: AUC; A+B<=>AB model
[7] = molecular target: T2, LLT1^SIM, N120R, R153E, K169A secondary …; assay: AUC; BAB model, second site (KD2)

Kd [1]: 102 µM
Kd [2]: 260 µM
Kd [3]: 191 µM
Kd [4]: 299 µM
Kd [5]: 52 µM
Kd [6]: 318 µM
Kd [7]: 308 µM
B1: soluble human NKR-P1 ectodomain (C-type lectin-like domain, […]), glycosylated with uniform GlcNAc2Man5 N-glycans (domain or fragment)
chain: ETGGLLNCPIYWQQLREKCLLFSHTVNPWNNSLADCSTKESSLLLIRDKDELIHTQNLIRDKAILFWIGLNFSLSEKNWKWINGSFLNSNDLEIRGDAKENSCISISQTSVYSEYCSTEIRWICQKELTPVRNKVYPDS
modifications: Asn-GlcNAc2Man5 N-glycans; potential N-glycosylation sites Asn116, Asn157, Asn169
